{"source": "patent US11753479B2", "about": "“Nucleic acids encoding anti-OX40L antibodies” (Kymab Limited, priority 2014, dated 2023)", "molecules": {"B1": {"name": "10A07 (human): fully human anti-human OX40L antibody, IgG4-PE, kappa; VH SEQ ID No:2, VL SEQ ID No:16; heavy chain SEQ ID No:30, light chain SEQ ID No:32 (antibody, listed as Homo Sapiens)", "heavy": "EVQLVESGGVLVQPGGSLRLSCAASGFTFSSYIMTWVRQAPGKGLEWVSGISGSGGGTYYADSMKGRFTISRDNSKNTLYLQMNSLRVEDTAVYYCAKDRLGPITLVRGGYYYGMDVWGQGTTVTVSSASTKGPSVFPLAPCSRSTSESTAALGCLVKDYFPEPVTVSWNSGALTSGVHTFPAVLQSSGLYSLSSVVTVPSSSLGTKTYTCNVDHKPSNTKVDKRV[human IgG4 Fc with changes not spelt out]", "light": "DIQMTQSPSSLSASVGDRVTITCRASQSISDYLNWYQQKPGKAPKFLIYAASSLQSGVPSRFSGSGSGTDFTLTVSSLQPEDFATYYCQQSYSTPRTFGQGTRVEIKRTVAAPSVFIFPPSDEQLKSGTASVVCLLNNFYPREAKVQWKVDNALQSGNSQESVTEQDSKDSTYSLSSTLTLSKADYEKHKVYACEVTHQGLSSPVTKSFNRGEC"}, "B2": {"name": "2D10 (human): fully human anti-human OX40L antibody, IgG4-PE, kappa; heavy chain SEQ ID No:62, light chain SEQ ID No:64 (antibody, listed as Homo Sapiens)", "heavy": "EVQLVESGGGLVQPGGSLRLSCAASGFTFSNYAMNWVRQAPGKGLEWVSTISGSGGATRYADSVKGRFTISRDNSRNTVYLQMNSLRVEDTAVFYCTKDRLIMATVRGPYYYGMDVWGQGTTVTVSSASTKGPSVFPLAPCSRSTSESTAALGCLVKDYFPEPVTVSWNSGALTSGVHTFPAVLQSSGLYSLSSVVTVPSSSLGTKTYTCNVDHKPSNTKVDKRV[human IgG4 Fc with changes not spelt out]", "light": "DIQMTQSPSSLSASVGDRVTITCRASQSISSYLNWYQQKPGKAPNLLIYAASSLQSGVPSRFSGSGSETDFTLTISSLQPEDFATYYCQQSHSVSFTFGPGTKVDIKRTVAAPSVFIFPPSDEQLKSGTASVVCLLNNFYPREAKVQWKVDNALQSGNSQESVTEQDSKDSTYSLSSTLTLSKADYEKHKVYACEVTHQGLSSPVTKSFNRGEC"}}, "key": {"[1]": {"tested_on": "IFN-γ release in PBMC/PBMC MLR", "assay": "Allogenic PBMC/PBMC Mixed Lymphocyte Reaction", "type": "cell-based, human", "conditions": "compared to the isotype control, one valid experiment", "method": "PBMCs are isolated from leukoreduction system chambers (NHSBT) using Ficoll-Paque® plus (GE Healthcare) density gradient centrifugation. PBMC are pre-incubated with mitomycin C (Sigma) at 10 μg/mL in PBS for one hour at 37° C. Cells are then washed 3 times in PBS centrifuging at 300×g for 3 minutes, aspirating the supernatant after each wash. Allogeneic PBMC (not treated with mitomycin C) are added to a 96-well plate in RPMI supplemented with 10% v/v FBS at a concentration of 2×10^6/ml, 50 μL/well. Anti-OX40L antibodies are diluted in culture media and added to 96 well plate containing PBMC (not mitomycin C treated) at 50 μL/well. Mitomycin C treated PBMC are then added to allogeneic PBMC (not treated with mitomycin C) in 96-well plate at a final cell ratio in range of 1:1 to 4:1 mitomycin C treated to non mitomycin C based on number of cells/well. […] After five days TNF-α, IFN-γ, and IL-2 are measured by Duoset® ELISA (R&D Systems) according to manufacturer's recommendations. Proliferation is measured by CFSE dilution according to manufacturer's recommendations.\nPBMCs were isolated from leukoreduction system chambers (NHSBT) using Ficoll-Paque® plus (GE Healthcare) density gradient centrifugation. […] After five days, IFN-γ was measured by Duoset® ELISA (R&D Systems) according to manufacturer's recommendations. […]\nBased on values from IFN-γ or IL2 release (pg/mL) determined as described […]"}, "[2]": {"tested_on": "CD3 primed primary human T lymphocytes", "assay": "Effect of anti-OX40L antibodies on CD3 primed primary human T lymphocytes", "type": "cell-based", "conditions": "IgG4PE format, 10 μg/mL, 5 days, four independent donors; over human IgG4PE isotype control", "method": "In order to determine whether anti-OX40L had the ability to induce T-cell responses in the absence of OX40L, the assay below was performed using method adapted from Wang et al., Hybridoma (Larchmt)., 2009 August; 28(4):269-76, in which an agonist anti-OX40L antibody was described.\nA mouse anti-human CD3 antibody (Becton Dickinson) was diluted to 0.5 μg/mL in sterile PBS and 50 μL/well added to a 96 well high binding sterile plate and incubated overnight at 4° C.\nFollowing overnight incubation, the plate was washed three times with 100 μL of sterile PBS.\nT-cells (CD3 positive) were isolated from PBMC derived from leukoreduction system chambers (NHSBT) as described in Example 3. Following isolation, the cells were added to wells in 100 μL to achieve a final concentration of 1×10^5 cells/well.\nTest antibodies were diluted in RPMI+10% FBS and 50 μL or 100 μL/well added to cell plate to achieve a final assay concentration of 10 μg/mL. In some cases, a mouse anti-human CD28 antibody (Becton Dickinson) was also added to wells at a final concentration of 1 μg/ml\nThe assay was incubated for 5 days. After 5 days, harvest supernatants and IFN-γ levels in supernatant were determined as described in Example 5."}, "Rhesus monkey OX40L": {"target": "Rhesus monkey OX40L", "assay": "Surface Plasmon Resonance apparent affinity, rhesus OX40L", "type": "binding, Rhesus (Macaca mulatta)", "conditions": "SPR, OX40L at single concentration of 256 nM, 25° C.; CNROR = Cannot resolve off-rate", "method": "(§1) SPR analysis was carried out using the ProteOn™ XPR36 Array System (BioRad). Anti-mouse IgG (GE Healthcare BR-1008-38) was immobilised on a GLM biosensor surface using amine coupling, the surface was then blocked using 1 M ethanolamine. Test antibodies were captured on this surface and recombinant hOX40L (human and rhesus) were used at a single concentration of 256 nM, binding sensorgrams were double referenced using a buffer injection (i.e. 0 nM) to remove baseline drift and injection artefacts. Apparent affinities for the OX40L-antibody interaction were determined using the 1:1 model inherent to the ProteOn XPR36 analysis software. The assay was run using HBS-EP (Teknova) as running buffer and carried out at 25° C."}, "recombinant hOX40L": {"target": "T1, recombinant hOX40L (Homo sapiens, UniProt P23510)", "T1 construct": "cDNA encoding the extracellular domain of human OX40L was cloned into a pREP4 expression plasmid; isoleucine zipper (trimerisation motif) (N); made in house; host or cells: FreeStyle CHO-S, transient expression", "T1 sequence (P23510 with tags, fused parts or gaps)": "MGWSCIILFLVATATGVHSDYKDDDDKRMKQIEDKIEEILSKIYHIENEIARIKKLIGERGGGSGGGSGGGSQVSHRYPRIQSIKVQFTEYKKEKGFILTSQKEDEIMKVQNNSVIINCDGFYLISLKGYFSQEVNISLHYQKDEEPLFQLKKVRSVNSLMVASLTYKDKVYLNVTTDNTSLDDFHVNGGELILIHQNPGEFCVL", "assay": "Surface Plasmon Resonance apparent affinity, human OX40L", "type": "binding", "conditions": "SPR, OX40L at single concentration of 256 nM, 25° C.; CNROR = Cannot resolve off-rate", "method": "as §1"}, "[3]": {"tested_on": "Rhesus Macaque model of haploidentical hematopoietic stem cell transplantation (HSCT)", "assay": "Rhesus Macaque Graft Versus Host Disease (GvHD) model"}, "[4]": {"conditions": "one line per animal, 2D10 IgG4PE 10 mg/kg, brackets = experimental failure"}}, "note": "Values joined by “and” are separate entries in the source; they are usually repeats but may differ in a detail not shown here. Identical values can stand only once. “Also recorded” adds a separate entry of the source.", "data": [{"molecule": "B1", "values": [{"measurement": "IFN-γ release", "setting": "[1]", "value": "inhibited IFN-γ release"}, {"measurement": "IFN-γ release (T-cell response in the absence of OX40L)", "setting": "[2]", "value": "no effect"}, {"measurement": "Apparent Affinity RhsOX40L (nM)", "setting": "Rhesus monkey OX40L", "value": "CNROR"}, {"measurement": "Apparent Affinity hOX40L (nM)", "setting": "recombinant hOX40L", "value": "CNROR"}]}, {"molecule": "B2", "values": [{"measurement": "IFN-γ release (T-cell response in the absence of OX40L)", "setting": "[2]", "value": "no effect"}, {"measurement": "serious adverse dosing side effects", "setting": "[3]; 10 mg/kg, weekly from Day −2, Rhesus HSCT recipients", "value": "No serious adverse dosing side effects"}, {"measurement": "Gross necropsy: visceral GvHD", "setting": "[3]; animal #4", "value": "no overt visceral GvHD"}, {"measurement": "Survival to Day", "setting": "[3]; one line per animal (#1, #2, #4, #5, #6), 3-4 doses of 2D10 IgG4PE, #1 recorded as Technical Failure", "value": "Survival to Day 16. Received 3 doses of 2D10 IgG4PE. Peak peripheral blood donor; also recorded: Survival to Day 26. Received 4 doses of 2D10 IgG4PE. Clear hematopoietic; also recorded: Survival to Day 22. Received 4 doses of 2D10 IgG4PE. Clear hematopoietic; also recorded: Survival to Day 16. Received 3 doses of 2D10 IgG4PE. Clear hematopoietic; also recorded: Survival to day 24. Received 4 doses of 2D10 IgG4PE. Biphasic hematopoietic Day"}, {"measurement": "Survival Duration", "setting": "[3]; [4]", "value": "22 days and 16 days (2×) and 26 days"}, {"measurement": "Survival Duration (days)", "setting": "[3]; [4]", "value": "(24) days"}, {"measurement": "Whole Blood Chimerism (%) Day 0", "setting": "[3]; one line per animal, Day 0 post-transplant", "value": 0, "unit": "%"}, {"measurement": "Whole Blood Chimerism (%) Day 1", "setting": "[3]; one line per animal, Day 1, listed as 2D10 IgG4PE", "value": "16.6% and 5.7% and 22.9%"}, {"measurement": "Whole Blood Chimerism (%) Day 4", "setting": "[3]; one line per animal, Day 4", "value": 6.6, "unit": "%"}, {"measurement": "Whole Blood Chimerism (%) Day 5", "setting": "[3]; one line per animal, Day 5, listed as 2D10 IgG4PE", "value": "91.4% and 66.3% and 31.7% and 68.2%"}, {"measurement": "Whole Blood Chimerism (%) Day 7", "setting": "[3]; one line per animal, Day 7", "value": 27.5, "unit": "%"}, {"measurement": "Whole Blood Chimerism (%) Day 8", "setting": "[3]; one line per animal, Day 8, listed as 2D10 IgG4PE", "value": "98.4% and 97.4% and 66.3% and 82.9%"}, {"measurement": "Whole Blood Chimerism (%) Day 11", "setting": "[3]; one line per animal, Day 11", "value": 90.4, "unit": "%"}, {"measurement": "Whole Blood Chimerism (%) Day 12", "setting": "[3]; one line per animal, Day 12, listed as 2D10 IgG4PE", "value": "98.6% and 99.5% and 82.3% and 92.1%"}, {"measurement": "Whole Blood Chimerism (%) Day 14", "setting": "[3]; one line per animal, Day 14", "value": 81.8, "unit": "%"}, {"measurement": "Whole Blood Chimerism (%) Day 15", "setting": "[3]; one line per animal, Day 15, listed as 2D10 IgG4PE", "value": "99.1% and 99.4% and 88.2% and 97.5%"}, {"measurement": "Whole Blood Chimerism (%) Day 16", "setting": "[3]; one line per animal, Day 16", "value": 79.8, "unit": "%"}, {"measurement": "Whole Blood Chimerism (%) Day 18", "setting": "[3]; one line per animal, Day 18", "value": 19.7, "unit": "%"}, {"measurement": "Whole Blood Chimerism (%) Day 20", "setting": "[3]; one line per animal, Day 20, listed as 2D10 IgG4PE", "value": "99.2% and 98.4%"}, {"measurement": "Whole Blood Chimerism (%) Day 21", "setting": "[3]; one line per animal, Day 21", "value": 0, "unit": "%"}, {"measurement": "Whole Blood Chimerism (%) Day 23", "setting": "[3]; one line per animal, Day 23, listed as 2D10 IgG4PE", "value": "98.6% and 98.8%"}, {"measurement": "Whole Blood Chimerism (%) Day 26", "setting": "[3]; one line per animal, Day 26", "value": 98.7, "unit": "%"}, {"measurement": "peak peripheral blood donor chimerism", "setting": "[3]; one line per animal, day of peak as printed (#2 Day 15, #4 Day 23, #5 Day 12, #6 Day 12), listed as 2D10 IgG4PE", "value": "88% and 99% (2×) and 100%"}, {"measurement": "evidence of CMV or rhLCV infection", "setting": "[3]; one line per animal, listed as 2D10 IgG4PE", "value": "No evidence of CMV or rhLCV infection and No (3×) and followed by autologous repopulation concurrent with evidence of CMV and rhLCV"}]}]}
